{"source": "PubChem BioAssay AID1479", "about": "(National Center for Advancing Translational Sciences (NCATS), 2009)", "note": "Out of some 280,000 compounds screened, about 820 (0.29%) were called active. This list was built around the results that the source calls inconclusive (neither active nor inactive); the mix of calls is not that of the screen. Calls come from the whole dose curve; as a rule, active = well fitted curve in either direction with a large enough effect; inconclusive = small, poorly fitted or top-dose-only effect; inactive = flat fitted curve, though single readings scatter. No potency is given beside an inconclusive call; the fits are too rough."}
{"assay": "Total Fluorescence Counterscreen for Inhibitors of the Interaction of Thyroid Hormone Receptor and Steroid Receptor Coregulator 2; note: potency is the fitted concentration of half-maximal effect; tags give direction and shape of the fitted curve or compound fluorescence and quenching; for fluorescence change, negative = quenching: % is set by controls: 0 for no effect and ±100 for the full control effect", "conditions": "TRb/SRC2 Texas Red total fluorescence interference; series mostly up to 106 µM; fluorescence change, negative = quenching: at the top concentration", "in_short": "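Human TRβ ligand-binding domain (0.6 uM) and Texas Red SRC2 peptide (20 nM) in Tris buffer with 1 uM T3 and 5% DMSO were incubated with pinned compound for 5 hr at ambient temperature. Total fluorescence was computed as S + 2P (555/632 nm).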"}
{"compound": "CCC(C)(NC(=O)Cc1c[nH]c2ccccc12)C(=O)NC1CCCCC1", "note": "(stereo not given)", "Potency": "inconclusive [falling, full curve, poor fit]"}
{"compound": "COc1ccccc1C(=O)NNC(=O)CCCN1C(=O)/C(=C/c2cccs2)SC1=S", "Potency": "inconclusive [rising, single point]"}
{"compound": "O=C(O)c1ccc(-n2c(/C=C\\c3ccc(O)cc3)nc3ccccc3c2=O)cc1", "Potency": "inconclusive [quencher, full curve]"}
{"compound": "CC(=O)NNS(=O)(=O)c1ccccc1[N+](=O)[O-]", "Potency": "inconclusive [falling, partial curve, poor fit]"}
{"compound": "Cc1noc(C)c1CN(C(=S)NC(C)C)c1ccccc1", "Potency": "inconclusive [falling, full curve, poor fit]"}
{"compound": "Cc1ccc(Cl)cc1Nc1nc(-c2sc(NC(=O)c3ccco3)nc2C)cs1", "fluorescence change, negative = quenching": "inactive: 6.71%"}
{"compound": "Cc1ccc(CNC(=O)Cc2coc3cc(C)cc(C)c23)cc1", "Potency": "active: 4.47 µM [quencher]"}
{"compound": "CCOC(=O)c1ccc(NC(=O)C2CCCN(c3ccc(Sc4ccc(C)cc4)nn3)C2)cc1", "note": "(stereo not given)", "Potency": "inconclusive [quencher, full curve]"}
{"compound": "CCn1ccc2cc(S(=O)(=O)N3CCCN(C(=O)NCC(C)C)CC3)ccc21", "fluorescence change, negative = quenching": "inactive: 2.88%"}
{"compound": "COc1ccccc1N1CCN(c2csc3ccc(Cl)cc3c2=O)CC1", "Potency": "inconclusive [quencher, partial curve]"}
{"compound": "COCCN=c1scc(-c2ccc3c(c2)NC(=O)CO3)n1/N=C(\\C)c1ccc(O)cc1", "fluorescence change, negative = quenching": "inactive: 1.44%"}
{"compound": "CCNC(=O)Cn1c(-c2cccs2)cc2ccccc21", "Potency": "inconclusive [quencher, full curve]"}
{"compound": "CCCSc1ncc(Cl)c(C(=O)Nc2sc3c(c2C(=O)NCCOC)CCCC3)n1", "Potency": "active: 0.1 µM [quencher]"}
{"compound": "O=C(Nc1ccc(F)cc1F)c1cc(-c2ccccc2O)no1", "Potency": "inconclusive [falling, full curve, poor fit]"}
{"compound": "COc1ccc(NC(=O)c2cc(-c3ccco3)nc3ccccc23)cc1S(=O)(=O)N1CCOCC1", "Potency": "inconclusive [quencher, partial curve]"}
{"compound": "CCn1c(SCCOc2ccccc2F)nc2ccccc21", "Potency": "inconclusive [falling, partial curve, poor fit]"}
{"compound": "Cc1c(C2=CCN(S(=O)(=O)c3ccc(CC(C)C)cc3)CC2)c2ccccc2n1CC(=O)N1CCCC1", "Potency": "inconclusive [fluorescent, full curve]"}
{"compound": "COc1ccc(C(=O)N(Cc2ccc(C(C)C)cc2)C2CCS(=O)(=O)C2)cc1", "note": "(stereo not given)", "Potency": "inconclusive [falling, partial curve, poor fit]"}
{"compound": "N=C1/C(=C\\c2ccc(SCc3ccco3)o2)C(=O)N=C2SC=NN12", "Potency": "inconclusive [fluorescent, partial curve]"}
{"compound": "C#CCN1C(=O)S/C(=C/C=C/c2ccc(N(C)C)cc2)C1=O", "Potency": "inconclusive [fluorescent, partial curve]"}
{"compound": "O=[N+]([O-])c1ccc(/C=C2\\CCC(C3=CCCC3)=C2N2CCOCC2)cc1", "fluorescence change, negative = quenching": "inactive: 0.595%"}
{"compound": "COc1ccc(-c2cn3cccnc3n2)cc1NC(=O)Nc1cc(C)ccc1C", "Potency": "inconclusive [quencher, full curve]"}
{"compound": "CCNc1nc(NCC)n2c(SC(C)C(=O)c3ccc(C)cc3)nnc2n1", "note": "(stereo not given)", "Potency": "inconclusive [falling, full curve, poor fit]"}
{"compound": "COc1ccc(C)cc1NC(=O)c1c2c(nc3ccccc13)C(=O)N(C1CCCCC1)C2", "Potency": "inconclusive [quencher, full curve]"}
{"compound": "CN[C@H](CC(C)C)C(=O)N[C@H]1C(=O)N[C@@H](CC(N)=O)C(=O)N[C@H]2C(=O)N[C@H]3C(=O)N[C@H](C(=O)N[C@H](C(=O)O)c4cc(O)cc(O)c4-c4cc3ccc4O)[C@H](O)c3ccc(c(Cl)c3)Oc3cc2cc(c3O[C@@H]2O[C@H](CO)[C@@H](O)[C@H](O)[C@H]2O[C@H]2C[C@](C)(N)[C@H](O)[C@H](C)O2)Oc2ccc(cc2Cl)[C@H]1O", "fluorescence change, negative = quenching": "inactive: -4.02%"}
{"compound": "CCOc1ccc(N2CC(c3nc4ccccc4n3CCCOc3ccccc3OC)CC2=O)cc1", "note": "(stereo not given)", "Potency": "active: 70.8 µM [quencher]"}
{"compound": "CCS(=O)(=O)N1CC(=O)N(c2ccc(Cl)cc2C)C(C)(C(=O)NC2CCCCCC2)C1", "note": "(stereo not given)", "Potency": "inconclusive [quencher, full curve]"}
{"compound": "CCOc1cc(C(=O)Nc2ccc3nc(Nc4cccc(Cl)c4)cc(C)c3c2)cc(OCC)c1OCC", "fluorescence change, negative = quenching": "inactive: 4.13%"}
{"compound": "CCCC(CCC)C(=O)Nc1cccc(-c2nc3cccnc3s2)c1C", "Potency": "inconclusive [falling, partial curve, poor fit]"}
{"compound": "Cc1ccc(NC(=O)/C(C#N)=C/c2cc(C)n(-c3ccc(Br)cc3)c2C)cc1C", "fluorescence change, negative = quenching": "inactive: 3.49%"}
{"compound": "Cc1ccc(CCNC(=O)c2ccc(CS(=O)(=O)c3ccc(Cl)cc3)o2)cc1", "Potency": "inconclusive [falling, partial curve, poor fit]"}
{"compound": "Fc1ccc(-c2cn3cc(Cc4ccccc4Cl)sc3n2)cc1", "Potency": "inconclusive [falling, full curve, poor fit]"}
{"compound": "Cc1ccc(NC(=O)CCCN2C(=O)c3cccc4cccc(c34)C2=O)cc1", "Potency": "inconclusive [falling, full curve, poor fit]"}
{"compound": "CC(C)[C@@H]1NC(=O)[C@H](CCCCN)NC(=O)[C@@H](Cc2c[nH]c3ccccc23)NC(=O)[C@H](Cc2ccc(O)cc2)NC(=O)[C@@H](NC(=O)[C@H](N)Cc2ccccc2)CSSC[C@@H](C(=O)N[C@@H](Cc2c[nH]c3ccccc23)C(N)=O)NC1=O", "fluorescence change, negative = quenching": "inactive: -1.82%"}
{"compound": "CCOc1ccc(CCNC(=O)c2cnc3c(-c4ccc(F)cc4)c(C)nn3c2C)cc1OCC", "Potency": "inconclusive [rising, single point]"}
{"compound": "CCCCN1C(=O)C(O)(c2c[nH]c3ccccc23)c2cc(Br)ccc21", "note": "(stereo not given)", "Potency": "inconclusive [falling, full curve, poor fit]"}
{"compound": "O=C1NC(=S)N/C1=C/c1ccc(-c2c(Br)cc([N+](=O)[O-])cc2Br)o1", "fluorescence change, negative = quenching": "inactive: -3%"}
{"compound": "COc1cc(C(=O)NS(=O)(=O)c2ccccc2C)ccc1Cc1cn(C)c2ccc(NC(=O)OC3CCCC3)cc12", "Potency": "inactive"}
{"compound": "COc1ccc(/C=C2\\C(=O)NC(=S)N2C(=O)c2ccc(F)cc2)cc1", "Potency": "inconclusive [falling, partial curve, poor fit]"}
{"compound": "O=C(c1cc2c(s1)-c1ccccc1OC2)N1CCN(c2ccccc2F)CC1", "Potency": "inconclusive [falling, full curve, poor fit]"}
{"compound": "COc1ccc(-c2cc(-c3nnc(COC(=O)C4CC4C)o3)c3ccccc3n2)cc1OC", "note": "(stereo not given)", "Potency": "inconclusive [falling, partial curve, poor fit]"}
{"compound": "COc1cc(CCC(=O)NCc2ccc3c(c2)CCN3C(=O)c2ccccc2)cc(OC)c1OC", "Potency": "inconclusive [falling, partial curve, poor fit]"}
{"compound": "O=C(NC(=S)Nc1ccccn1)c1ccco1", "Potency": "inconclusive [falling, partial curve, poor fit]"}
{"compound": "Cc1c(NC(=O)c2ccc(-c3cccc([N+](=O)[O-])c3)o2)cccc1-c1nc2cc(Cl)ccc2o1", "Potency": "inconclusive [falling, full curve, poor fit]"}
{"compound": "Nc1c(C(=O)O)ccc2c1C(=O)c1ccccc1C2=O", "Potency": "inconclusive [fluorescent, partial curve]"}
{"compound": "COc1cccc(C2CCCN2Cc2nc(CC3CC3)no2)c1", "note": "(stereo not given)", "Potency": "inconclusive [rising, single point]"}
{"compound": "COc1cccc(C2C(C(=O)Nc3ccc(C)cc3C)=C(C)Nc3c(C(=O)Nc4ccccc4)cnn32)c1", "note": "(stereo not given)", "Potency": "inconclusive [falling, full curve, poor fit]"}
{"compound": "Cc1cc(-c2nc3c4c5c(sc4[nH]c(=O)n3n2)CCC5)c(C)o1", "Potency": "inconclusive [quencher, partial curve]"}
{"compound": "COc1cc(C2C(C#N)=C(N)Oc3c2ccc2ccccc32)ccc1OCC(=O)Nc1ccccc1C", "note": "(stereo not given)", "fluorescence change, negative = quenching": "inactive: -0.407%"}
{"compound": "COc1cc(Cl)c(S(=O)(=O)NCCc2c(C)[nH]c3c(C)cccc23)cc1Cl", "fluorescence change, negative = quenching": "inactive: -0.538%"}
{"compound": "COc1ccccc1CNS(=O)(=O)c1ccc2c(c1)CC(C)N2C(C)=O", "note": "(stereo not given)", "Potency": "inconclusive [quencher, full curve]"}
{"compound": "Cc1nc2ccn(Cc3cccnc3)c(=O)c2cc1C(=O)N1CCN(c2ccc(F)cc2)CC1", "Potency": "inconclusive [falling, partial curve, poor fit]"}
{"compound": "CCS(=O)(=O)N1CC(=O)N(c2ccc(Cl)cc2)C(C)(C(=O)NC2CCCCCC2)C1", "note": "(stereo not given)", "Potency": "active: 17.8 µM [quencher]"}
{"compound": "O=C(O)c1cccc(N/N=C/C2=C(Cl)c3cc(Cl)ccc3SC2)c1", "Potency": "inconclusive [falling, single point]"}
{"compound": "Cc1cc2nc(-c3ccc(NC(=O)c4cc5ccccc5o4)cc3)oc2cc1C", "Potency": "inconclusive"}
{"compound": "Cc1ccc(C(C)C)c(OCCSc2nc3ccccc3n2CC(O)CO)c1", "note": "(stereo not given)", "Potency": "inconclusive [quencher, full curve]"}
{"compound": "CCOC(=O)CSc1nc2c(sc3ccccc32)c(=O)n1CCO", "fluorescence change, negative = quenching": "inactive: -1.16%"}
{"compound": "CC1CCN(CC2CCN(C(=O)Nc3ccc(Br)cc3F)CC2)CC1", "Potency": "inconclusive [quencher, full curve]"}
{"compound": "COc1ccc(N(Cc2cc3cccc(C)c3[nH]c2=O)C(=O)c2cccc(Cl)c2)cc1", "Potency": "inconclusive [quencher, full curve]"}
{"compound": "Nc1[nH]nc2c1NN(c1ccc(Cl)cc1Cl)N2", "fluorescence change, negative = quenching": "inactive: -6.38%"}
